Consider 120 sequences from the supplement of paper PMC10126150.

Sequences with one replicate were seen in a single cluster, so their values are uncertain.

The series relates to ATP. The experiment in a line: switch fluorescence ratio, 500 uM ATP over buffer (Cy3 cluster intensity, sum of 5 cycles each) (fold (ratio)); higher = stronger signal-on switching upon ATP binding; sequences stand for … in TCGTCGGCAGCGTCAGATGTGTATAAGAGACAGTTTTTTTTTTTTTTTTTTTTTTTTT…TC. Particulars: aptamer strand: ATP DNA aptamer (quencher-CACCTGGGGGAGTATTGCGGAGGAAGG + anchor), 100 nM annealed; ATP concentration: 500 uM; one replicate. The essentials: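 Five buffer/ATP imaging cycles were run on Cy3-labelled switching-strand clusters on a modified Illumina MiSeq flow-cell, with NaOH stripping and re-annealing between cycles. In each cycle, clusters annealed to 100 nM quencher-labelled ATP aptamer were imaged in selection buffer, then after 15 min with 500 uM ATP at 22 °C. Per cluster, the fluorescence ratio is summed target-cycle over summed buffer-cycle Cy3 intensity, averaged per switch-domain sequence. Only clusters within 100-1000 RFU were kept.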
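Further: ATP exposure 15 min at 22 °C before imaging.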

With ACGCATCACG, the switch fluorescence ratio turned out to be 1.14. Under AGTGGTTCTC stands 0.988; under TGTAATCCGA, 0.992; under ATCGTAATCT, 1.05.

Take GTCTACCCTT: the switch fluorescence ratio amounted to 1.08. As to CGTATTCGAG, the switch fluorescence ratio stood at 0.95. Under AGGAGGCCGA stands 1.03; under CTGAAACTTT, 1.06; under ATGAGTTAGA, 1.09. In the case of CCCAGTTTGT it was 1.09. Under CATAAAGACA stands 0.997. With TGCCGTGCGC, the switch fluorescence ratio amounted to 0.947. Turning to ACGCTTGGCT, the switch fluorescence ratio stood at 1.9. Under AGCGATATAG stands 1.04. In the case of CAGGCATTTA it was 1.03; in that of ATTGGTTGAC, 0.989. For GAGAAGGCTT, the switch fluorescence ratio turned out to be 1.07. Consider TGTCTCCTAA, for which the switch fluorescence ratio was 0.985. For the sequence TCTGGAATCC, the switch fluorescence ratio was 2.38. Under GGTCAAGAGG stands 0.962; under TCACATCCTT, 1.04. Under GTTATAAATT stands 0.984; under ACTAGCCTGT, 1; under AAAGTCAGAG, 0.974. Under AGACAGGAAA stands 0.984; under GCTCAACTTG, 0.988; under AAGGAATAGA, 0.951. GCGGACATAA: the switch fluorescence ratio turned out to be 1.01. In the case of AAAACA it was 1.04.

As for TTGAAGTCGG, the switch fluorescence ratio worked out at 1. In the case of AATGATCCAC it was 1.05; in that of AGCAGTATG, 1.03. In the case of AGCGTGTGGT it was 0.995. In the case of ACACGGTTCC it was 1.08; in that of TCTCTTGCC, 1.04; in that of TTGGAGGAG, 0.987. For the sequence GGATCTTGCC, the switch fluorescence ratio was found to be 1.07.

For the sequence CGGGTCAAAC, the switch fluorescence ratio is 1.09.

For TGCGGAAAAT, the switch fluorescence ratio came to 0.998.

Consider CGTACATATA, for which the switch fluorescence ratio is 1.05. In the case of CTCTTTAGCA it was 1.22. As to CAGGTCTGAG, the switch fluorescence ratio came out at 1.02. In the case of CTCAGATAGT it was 0.996; in that of AAGTCTAGTG, 0.984; in that of CGTTATTCAG, 0.976. Under GTGATAAGGC stands 1.06. In the case of TGACTATTG it was 0.971; in that of ACGGCAAAAA, 1.01.

TGGAAGTAAC: the switch fluorescence ratio amounted to 1.07.

On to CACTAGGGAG, for which the switch fluorescence ratio was determined as 0.991. Under ATGAGACAGT stands 0.995; under TTTGTACTAG, 1.

For AATTATTGCT, the switch fluorescence ratio came to 0.963. On to CGAGGAACAA, for which the switch fluorescence ratio worked out at 1.06. In the case of AGCAAGCATG it was 1.03.

CAGATCATTG: the switch fluorescence ratio amounted to 1. In the case of GGAAGCCCGT it was 1.02. In the case of TCAAAATTGA it was 0.998; in that of ATTTCCTAGA, 0.987. Under GGGGGATGAG stands 0.98; under GCAATTCGTC, 1.27. On to GACGGGCTGA, for which the switch fluorescence ratio was 1.01. As to TGGCGAAGCG, the switch fluorescence ratio was 1.01.

As for GACAAAAGCA, the switch fluorescence ratio was 1.02.

With ATCGGGTCAG, the switch fluorescence ratio came out at 0.999.

For the sequence CGGCGCGATA, the switch fluorescence ratio came out at 4.54. With CAATTAATGC, the switch fluorescence ratio was found to be 1.03. Under TCATTGGTTC stands 0.977.

ATAGCGTAAG: the switch fluorescence ratio came out at 0.998. Under ACGAGAAATT stands 1.02; under GACCAAATTC, 1.05; under TTGCTGCTAT, 1.11. With TGACTGTAAC, the switch fluorescence ratio was determined as 1.18.

In the case of AGGGCGTACT, the switch fluorescence ratio is 1.03. Under TCGATGAGAT stands 0.991; under CTATTCGT, 1.05; under ACACTTCGGA, 1.02. In the case of GAACACCTTA it was 1.08; in that of CGTCGACCCA, 0.994; in that of TATTGAAGCT, 0.999. Under CAGTTAGCA stands 1.02. Consider ACAAGTTGGG, for which the switch fluorescence ratio was 0.957.

In the case of GGAGAGTTGG, the switch fluorescence ratio amounted to 0.988.

For the sequence TGGCTGGCCG, the switch fluorescence ratio was 1.01. Under ATTGAGTCCT stands 0.999. In the case of GGGGCAGCGA it was 1.07; in that of GGTTACGGTT, 0.938. For the sequence GTTAGGTGTA, the switch fluorescence ratio was determined as 1. With ATGAGGATC, the switch fluorescence ratio was 0.981. In the case of GTCGGGTAGC it was 1.01; in that of ATAATG, 0.973; in that of CTAAATTCTT, 1. Under ACCCCGACTA stands 1.34. Under ACTGGTAATA stands 1.05; under CAGTTAATGT, 1; under TGGATATGCT, 0.994. CCCGGTTGGG: the switch fluorescence ratio amounted to 0.995. In the case of CAGGTGACGT it was 1.04.

On to TGCGCGAGAG, for which the switch fluorescence ratio came out at 1.24. On to CGGGACAGGT, for which the switch fluorescence ratio stood at 1.25. In the case of CCAGAGGGGA it was 1.01; in that of GGTTAAAGG, 1; in that of GGTGAATCAA, 0.985.

As to GTGTTAAGTC, the switch fluorescence ratio came to 0.945. Consider ACAGTATAT, for which the switch fluorescence ratio was 1.12. Under CTCGGCCAAA stands 1.37; under ATTGGTAATC, 1.02.

Consider ACCTACTGCG, for which the switch fluorescence ratio amounted to 1.18.

In the case of TGTGGGATCA, the switch fluorescence ratio came out at 1.04. On to TCCCGGATGT, for which the switch fluorescence ratio was found to be 1.03. Under TCCTCGGCCA stands 1.09; under CCCGCAGTCG, 2.11; under GCCATTGCAA, 0.984.

As to TTTGGACACG, the switch fluorescence ratio turned out to be 0.986. In the case of AGAGTGCAGA it was 0.996; in that of GCCCTTTTAG, 0.984; in that of TTCACTAACT, 1.09. Under AAATGCGGTT stands 1.03; under CTGGCGTCTT, 1.04; under CAGTATCTAT, 1.01.
